Source: the supplement of paper PMC9938546
Counter-ions that a name gives are not always drawn. Some of the results follow. Many values rest on one well or one pass, so single values are uncertain.

These compounds were tested on HCT116-GFP (assay: HCT116-GFP viability (GFP intensity) relative to untreated control, monoculture; higher = less cancer cell killing). Conditions: culture: HCT116-GFP monoculture; 10 µM; 72 h.
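Further: viability estimated indirectly by image-based GFP quantification with live-cell imaging of the constitutively GFP-expressing human colorectal cancer line, no immune cells added.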

SMILES	HCT116-GFP viability
COc1ccc(NS(=O)(=O)c2ccc(N)cc2)nn1 [Sulfamethoxypyridazine]	99.5%
CCC[C@H](N[C@@H](C)C(=O)N1[C@H](C(=O)O)C[C@@H]2CCCC[C@@H]21)C(=O)OCC [Perindopril]	86.5%
OCCN1CCN(CCCN2c3ccccc3Sc3ccc(Cl)cc32)CC1 [Perphenazine]	46.6%
CN(C)CCc1c[nH]c2ccc(Cn3cncn3)cc12 [Rizatriptan benzoate]	91.9%
OC[C@H]1O[C@@H](Oc2ccc(O)cc2)[C@H](O)[C@@H](O)[C@@H]1O [Arbutin]	101%
Nc1ccc(S(=O)(=O)c2ccc(N)cc2)cc1 [Dapsone]	102%
C=C1C[C@H]2[C@@H]3C=C(C)C4=CC(=O)CC[C@]4(C)[C@H]3CC[C@]2(C)[C@@]1(OC(C)=O)C(C)=O [Melengestrol acetate]	101%
CC(=O)Oc1cccc2c1C(=O)c1c(OC(C)=O)cc(C(=O)O)cc1C2=O [Diacerein]	122%
CCCNC(C)C(=O)Nc1ccccc1C (centres undefined) [Prilocaine hydrochloride]	94.5%
COc1ccc(CN(CCN(C)C)c2ccccn2)cc1 [Pyrilamine maleate]	102%
CC(COc1ccccc1)N(CCCl)Cc1ccccc1 (centres undefined) [Phenoxybenzamine hydrochloride]	82.3%
CCCCC[C@H](O)/C=C/[C@@H]1[C@@H](C/C=C\CCCC(=O)O)[C@@H](O)C[C@H]1O [Dinoprost trometamol]	101%
CC(=O)c1ccc(S(=O)(=O)NC(=O)NC2CCCCC2)cc1 [Acetohexamide]	90.5%
CCCN[C@H]1CCc2nc(N)sc2C1 [Pramipexole dihydrochloride]	83.6%
CCOC(=O)c1ccc(OC(=O)CCCCCNC(=N)N)cc1 [Gabexate mesilate]	109%
Cc1cc(=O)oc2cc(O)ccc12 [Hymecromone]	85.1%
Cn1c(=O)c2nc[nH]c2n(C)c1=O [Theophylline monohydrate]	102%
C=C1c2cccc(O)c2C(=O)C2=C(O)[C@]3(O)C(=O)C(C(N)=O)=C(O)[C@@H](N(C)C)[C@@H]3[C@@H](O)[C@H]12 [Methacycline hydrochloride]	84.5%
c1ccc(C2CN3CCSC3=N2)cc1 (centres undefined) [Tetramisole hydrochloride]	97.5%
Cc1scc2c1N(C(=O)CN1CCN(C)CC1)c1ccccc1NC2=O [Telenzepine dihydrochloride]	92.1%
NCCCC[C@H](N[C@@H](CCc1ccccc1)C(=O)O)C(=O)N1CCC[C@H]1C(=O)O [Lisinopril]	97.8%
O=C(Nc1cccc2c(=O)cc(-c3nnn[nH]3)oc12)c1ccc(OCCCCc2ccccc2)cc1 [Pranlukast]	91.9%
CC(C)(C)NC[C@H](O)COc1nsnc1N1CCOCC1 [Timolol maleate salt]	96.5%

SMILES	HCT116-GFP viability
CCOC(=O)[C@H](CCc1ccccc1)N[C@H]1CCc2ccccc2N(CC(=O)O)C1=O [Benazepril hydrochloride]	102%
COC1=C(OC)C(=O)C(CCCCCCCCCCO)=C(C)C1=O [Idebenone]	75.2%
CCOC(=O)OC(C)OC(=O)[C@@H]1N2C(=O)[C@@H](NC(=O)[C@H](N)c3ccccc3)[C@H]2SC1(C)C (some centres undefined) [Bacampicillin hydrochloride]	100%
CC[C@H]1OC(=O)[C@H](C)[C@@H](O[C@H]2C[C@@](C)(OC)[C@@H](O)[C@H](C)O2)[C@H](C)[C@@H](O[C@@H]2O[C@H](C)C[C@H](N(C)C)[C@H]2O)[C@](C)(O)C[C@@H](C)/C(=N\OCOCCOC)[C@H](C)[C@@H](O)[C@]1(C)O [Roxithromycin]	92.1%
Nc1nc(F)nc2c1ncn2[C@@H]1O[C@H](CO)[C@@H](O)[C@@H]1O [Fludarabine]	61.5%
CC(=O)N[C@@H](CC(C)C)C(=O)O [N-Acetyl-L-leucine]	114%
Nc1nc(=O)c2nc(CNc3ccc(C(=O)N[C@@H](CCC(=O)O)C(=O)O)cc3)cnc2[nH]1 [Folic acid]	99.9%
CC(C)C(=O)OCC(=O)[C@@]12O[C@H](C3CCCCC3)O[C@@H]1C[C@H]1[C@@H]3CCC4=CC(=O)C=C[C@]4(C)[C@H]3[C@@H](O)C[C@@]12C [Ciclesonide]	31.3%
O=C1CN2Cc3c(ccc(Cl)c3Cl)N=C2N1 [Anagrelide]	99.8%
Nc1nc(=S)c2ncn([C@@H]3O[C@H](CO)[C@@H](O)[C@H]3O)c2[nH]1 [Thioguanosine]	41%
CC(C)NCC(O)COc1ccc(COCCOC(C)C)cc1 (centres undefined) [Bisoprolol fumarate]	104%
CO[C@H]1/C=C/O[C@@]2(C)Oc3c(C)c(O)c4c(c3C2=O)C2=NC3(CCN(CC(C)C)CC3)NC2=C(NC(=O)/C(C)=C\C=C\[C@H](C)[C@H](O)[C@@H](C)[C@@H](O)[C@@H](C)[C@H](OC(C)=O)[C@@H]1C)C4=O [Rifabutin]	106%
O=C(Cn1ccnc1[N+](=O)[O-])NCCO [Etanidazole]	138%
CN(C)CCN(Cc1cccs1)c1ccccn1 [Methapyrilene hydrochloride]	97.2%
COc1c(O[C@@H]2O[C@H](CO)[C@@H](O)[C@H](O)[C@H]2O)cc2c(c1OC)-c1ccc(SC)c(=O)cc1[C@@H](NC(C)=O)CC2 [Thiocolchicoside]	87.4%
Clc1ccc(C(Cn2ccnc2)OCc2c(Cl)cccc2Cl)c(Cl)c1 (centres undefined) [Isoconazole]	63.3%
NC(=O)N1c2ccccc2C=Cc2ccccc21 [Carbamazepine]	85.2%
O=C1CC2(CCCC2)CC(=O)N1CCCCN1CCN(c2ncccn2)CC1 [Buspirone hydrochloride]	82.6%
CC[C@H]1OC(=O)[C@H](C)[C@@H](O[C@H]2C[C@@](C)(OC)[C@@H](O)[C@H](C)O2)[C@H](C)[C@@H](O[C@@H]2O[C@H](C)C[C@H](N(C)C)[C@H]2O)[C@](C)(O)C[C@@H](C)[C@@H]2N[C@@H](COCCOC)O[C@H]([C@H]2C)[C@]1(C)O [Dirithromycin]	97.1%
C[C@H](O)C(=O)Nc1c(I)c(C(=O)NC(CO)CO)c(I)c(C(=O)NC(CO)CO)c1I [Iopamidol]	101%
CC(C)CC(=O)N[C@H](C(=O)N[C@H](C(=O)N[C@@H](CC(C)C)[C@@H](O)CC(=O)N[C@@H](C)C(=O)N[C@@H](CC(C)C)[C@@H](O)CC(=O)O)C(C)C)C(C)C [Pepstatin A]	90.4%
Nc1ccc(S(=O)(=O)Nc2ccnn2-c2ccccc2)cc1 [Sulfaphenazole]	93.5%
CO/N=C(\C(=O)N[C@@H]1C(=O)N2C(C(=O)O)=C(COC(N)=O)CS[C@H]12)c1ccco1 [Cefuroxime sodium salt]	97.2%

SMILES	HCT116-GFP viability
O=C(NCC(O)CO)c1c(I)c(C(=O)NCC(O)CO)c(I)c(N(CCO)C(=O)CO)c1I (centres undefined) [Ioversol]	104%
CC1Cc2ccccc2N1NC(=O)c1ccc(Cl)c(S(N)(=O)=O)c1 (centres undefined) [Indapamide]	95%
Cc1cc(CC(=O)O)n(C)c1C(=O)c1ccc(Cl)cc1 [Zomepirac sodium salt]	95.3%
O=C(O)COC(=O)Cc1ccccc1Nc1c(Cl)cccc1Cl [Aceclofenac]	112%
Cc1cnc(NC(=O)C2=C(O)c3ccccc3S(=O)(=O)N2C)s1 [Meloxicam]	97.7%
CC1CC(OC(=O)C(O)c2ccccc2)CC(C)(C)N1C (centres undefined) [Eucatropine hydrochloride]	96.3%
Cc1nnc(NS(=O)(=O)c2ccc(N)cc2)s1 [Sulfamethizole]	102%
CCN1CCN(c2cc3c(cc2F)c(=O)c(C(=O)O)cn3C2CC2)CC1 [Enrofloxacin]	79.5%
CCN1CCC[C@H]1CNC(=O)c1c(OC)ccc(Br)c1OC [Remoxipride Hydrochloride]	99.9%
Oc1ccc(OCc2ccccc2)cc1 [Monobenzone]	88.8%
C[C@H]1C[C@H]2[C@@H]3CCC4=CC(=O)C=C[C@]4(C)[C@@]3(F)[C@@H](O)C[C@]2(C)[C@@]1(O)C(=O)CO [Betamethasone]	103%
CCN1CCN(C(=O)N[C@@H](C(=O)N[C@@H]2C(=O)N3C(C(=O)O)=C(CSc4nnnn4C)CS[C@H]23)c2ccc(O)cc2)C(=O)C1=O [Cefoperazone dihydrate]	94.8%
CN(C)CCOc1ccc(/C(=C(/CCCl)c2ccccc2)c2ccccc2)cc1 [Toremifene]	82.1%
COC(=O)Nc1nc2ccc(SC(C)C)cc2[nH]1 [Methiazole]	14%
C=C1/C(=C\C=C2/CCC[C@]3(C)[C@@H]([C@H](C)/C=C/[C@@H](O)C4CC4)CC[C@@H]23)C[C@@H](O)C[C@@H]1O [Calcipotriene]	67.1%
Cc1ccc(Cl)c(Nc2ccccc2C(=O)O)c1Cl [Meclofenamic acid sodium salt monohydrate]	91.6%
O=C(NCCO[N+](=O)[O-])c1cccnc1 [Nicorandil]	104%
CC1=Nc2ccc(Cl)cc2S(=O)(=O)N1 [Diazoxide]	91.2%
CC(C(=O)O)c1ccc(N2Cc3ccccc3C2=O)cc1 (centres undefined) [Indoprofen]	93.2%
CCn1nc(C(=O)O)c(=O)c2cc3c(cc21)OCO3 [Cinoxacin]	106%
Cc1cc(/C=C/c2ccc3cc(N(C)C)ccc3[n+]2C)c(C)n1-c1ccccc1 [Pyrvinium pamoate]	17.4%
CCCCNc1ccc(C(=O)OCCOCCOCCOCCOCCOCCOCCOCCOCCOC)cc1 [Benzonatate]	82.7%
COCCOC(=O)C1=C(C)NC(C)=C(C(=O)OC/C=C/c2ccccc2)C1c1cccc([N+](=O)[O-])c1 (centres undefined) [Cilnidipine]	54.3%
